Out of some 110,000 compounds screened, about 230 (0.21%) showed an effect of 50% or more. The list shows a part of the results.

50 compounds from publication PMC6919601, “Identification of Plasmodium dipeptidyl aminopeptidase allosteric inhibitors by high throughput screening” (PLoS ONE, 2019) can be followed below.
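Note: 30 min substrate incubation versus DMSO and 10 µM JCP410 controls.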

Sequence of DPAP1 (Q8IIJ9 whole entry, looked up): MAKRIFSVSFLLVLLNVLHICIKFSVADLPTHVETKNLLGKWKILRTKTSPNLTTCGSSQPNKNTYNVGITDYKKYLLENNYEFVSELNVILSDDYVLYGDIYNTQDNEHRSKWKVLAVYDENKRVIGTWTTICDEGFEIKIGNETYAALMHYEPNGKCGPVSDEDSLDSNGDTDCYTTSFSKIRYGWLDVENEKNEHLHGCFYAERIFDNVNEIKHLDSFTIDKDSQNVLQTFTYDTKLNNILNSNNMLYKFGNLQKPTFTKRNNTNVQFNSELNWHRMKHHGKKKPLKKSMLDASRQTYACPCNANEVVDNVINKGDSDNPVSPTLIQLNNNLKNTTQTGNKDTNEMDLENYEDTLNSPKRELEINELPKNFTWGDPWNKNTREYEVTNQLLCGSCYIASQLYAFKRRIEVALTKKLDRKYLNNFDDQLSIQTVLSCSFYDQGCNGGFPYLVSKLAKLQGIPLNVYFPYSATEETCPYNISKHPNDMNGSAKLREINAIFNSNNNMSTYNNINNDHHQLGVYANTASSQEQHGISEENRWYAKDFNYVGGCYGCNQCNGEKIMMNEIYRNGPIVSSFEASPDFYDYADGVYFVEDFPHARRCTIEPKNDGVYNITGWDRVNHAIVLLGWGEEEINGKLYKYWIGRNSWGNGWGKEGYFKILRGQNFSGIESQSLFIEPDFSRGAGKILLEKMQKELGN

The test has as its target DPAP1 (Plasmodium falciparum, UniProt Q8IIJ9). Description: primary screen, percent inhibition; read by cleavage of a fluorogenic dipeptide substrate; higher = more effect of the substance. On the set-up: species or system P. falciparum D10 trophozoite lysates; single well.
With `O=C(O)c1ccc(Nc2ccc3ccccc3n2)cc1`, the “% Inhibition @ 10 uM” value is recorded as 3.44%.

For the compound `Oc1ccc(Br)cc1C1NCCc2c1[nH]c1ccccc21` (centres unmarked), the “% Inhibition @ 10 uM” value was -3.92%.

For `COC1CCCCC1NCCc1ccc(F)cc1` (centres unmarked), the “% Inhibition @ 10 uM” value was determined as 0.177%.

On to `CCOc1ccc(CCNC(=O)C2CCN(S(C)(=O)=O)CC2)cc1OCC`, for which the “% Inhibition @ 10 uM” value was -1.56%.

As for `C=CCOc1cccc(CNC(C)(C)CO)c1`, the “% Inhibition @ 10 uM” value turned out to be 6.98%.

`COc1cccc(C(=O)Nc2sc(C)c(C)c2C#N)c1`: the “% Inhibition @ 10 uM” value came to 0.343%.

In the case of `CC1(c2ccc(O)cc2)NC(=O)NC1=O` (centres unmarked), the “% Inhibition @ 10 uM” value is recorded as -0.424%.

`COCCNC(=O)CCc1nc(-c2ccc(Cl)cc2)no1`: the “% Inhibition @ 10 uM” value is recorded as -3.12%.

With `COc1ccc(OC)c(C2C(C#N)=C(N)OC3=C2C(=O)CC(c2ccccc2)C3)c1` (centres unmarked), the “% Inhibition @ 10 uM” value is 5.93%.

For `Cc1cc(/C=C2\SC(=O)NC2=O)c(C)n1-c1ccc(N(C)C)cc1`, the “% Inhibition @ 10 uM” value came to 0.392%.

In the case of `CC(C)C[C@H](NC(=O)C1CCN(C(=O)CSCCCC(P(=O)(O)O)P(=O)(O)O)CC1)C(=O)N[C@@H](CCc1ccccc1)C(=O)COc1ccccc1`, the “% Inhibition @ 10 uM” value is on record as 3.1%.

With `Cc1ccc(-c2csc(/C(C#N)=C\c3cccc(F)c3)n2)cc1`, the “% Inhibition @ 10 uM” value is reported as 0.912%.

Take `O=C(O)c1cccc(NC(=O)c2ccc([N+](=O)[O-])cc2C(=O)O)c1`: the “% Inhibition @ 10 uM” value is -8.11%.

As for `COC(=O)c1nn2c(C(F)(F)F)cc(-c3cccs3)nc2c1Cl`, the “% Inhibition @ 10 uM” value is on record as -2.2%.

Turning to `CC1(C)CC(=O)C2=C(C1)C(c1ccc(Cl)cc1Cl)c1c(O)nc(O)nc1N2` (centres unmarked), the “% Inhibition @ 10 uM” value was 7.84%.

Consider `O=C(CN(c1ccc2c(c1)OCCO2)S(=O)(=O)c1ccccc1)N1CCCCCC1`, for which the “% Inhibition @ 10 uM” value is recorded as -4.49%.

Regarding `O=C(Nc1ccc(O)cc1)c1nn2c(c1Cl)NC(c1cccs1)CC2C(F)(F)F` (centres unmarked), the “% Inhibition @ 10 uM” value is recorded as -2.87%.

As for `N#CC1=C(N)Oc2[nH]nc(-c3ccccc3Cl)c2C1c1ccccc1` (centres unmarked), the “% Inhibition @ 10 uM” value is reported as 2.68%.

Consider `O=S(=O)(c1ccc2c(c1)OCCO2)N1CCOCC1`, for which the “% Inhibition @ 10 uM” value stood at 11.3%.

Turning to `CC1=C(C#N)C(=O)N(CCCO)C(=O)/C1=C\c1ccc(-c2cccc(C(=O)O)c2)o1`, the “% Inhibition @ 10 uM” value is 5.37%.

For the compound `CCCC1=C(C(=O)OCC)C(c2ccccc2)C(C#N)=C(N)O1` (centres unmarked), the “% Inhibition @ 10 uM” value was 1.41%.

Regarding `COC(=O)Nc1ccccc1C(=O)N1CCC(O)(c2ccc(Cl)cc2)CC1`, the “% Inhibition @ 10 uM” value was found to be 2.48%.

Take `COc1cc(-c2nnn(CC(=O)O)n2)cc(OC)c1OC`: the “% Inhibition @ 10 uM” value is -3.53%.

In the case of `Cc1cccc(C)c1NC(=O)C(NC(=O)CN1C(=O)c2ccccc2C1=O)c1ccc(O)cc1` (centres unmarked), the “% Inhibition @ 10 uM” value is given as -1.45%.

As for `Cc1c(O)nc(O)nc1NCc1ccccc1`, the “% Inhibition @ 10 uM” value worked out at 2.22%.

For `Cc1ccc(OCC(=O)Nc2nnc(S(=O)(=O)N3CCC(C)CC3)s2)cc1`, the “% Inhibition @ 10 uM” value was -1.72%.

For `CCOC(=O)N1CCN(C(=O)CSCc2nc(-c3ccccc3C)oc2C)CC1`, the “% Inhibition @ 10 uM” value is recorded as -1.05%.

`Cc1cc(NC(=O)CN(C)Cc2ccccc2)nc2c1c(=O)oc1ccccc12`: the “% Inhibition @ 10 uM” value is on record as 1.22%.

Regarding `COc1ccc(C2CC(=O)N=C(NC(C)=O)N2)cc1` (centres unmarked), the “% Inhibition @ 10 uM” value came out at 4.48%.

Take `c1ccc(CSc2nc[nH]n2)nc1`: the “% Inhibition @ 10 uM” value was found to be 0.503%.

On to `CC1=CC2=NC(=O)/C(=C\c3ccc(OCc4ccccc4C)cc3)C(=N)N2O1`, for which the “% Inhibition @ 10 uM” value is 3.63%.

For `CC1CC2(NC(=O)NC2=O)C(C)CN1C` (centres unmarked), the “% Inhibition @ 10 uM” value was -0.744%.

On to `N#Cc1cc2c(nc1SCC(=O)Nc1ccc(F)cc1)CCCCC2`, for which the “% Inhibition @ 10 uM” value was -0.68%.

As to `COc1ccc(CNS(=O)(=O)c2cc3nc(O)c(O)nc3cc2C)cc1`, the “% Inhibition @ 10 uM” value is 2.88%.

For the compound `CCCCN1CCc2c([nH]c3ccc(C)cc23)C1=O`, the “% Inhibition @ 10 uM” value is -7.42%.

Consider `Cc1nc(N)sc1-c1csc(Nc2ccc(Cl)cn2)n1`, for which the “% Inhibition @ 10 uM” value is recorded as 16.7%.

As to `CCOC(=O)c1c(CN2CCN(c3ccccc3)CC2)n(C)c2cc(Br)c(O)cc12`, the “% Inhibition @ 10 uM” value was -2.15%.

As to `COc1ccc2c(c1)C1C=CCC1C(c1ccc(Br)cc1)N2` (centres unmarked), the “% Inhibition @ 10 uM” value is reported as -2.42%.

As to `CCOc1cc(C2CC(=O)Nc3c2c(=O)nc(SC)n3C)ccc1OCC(N)=O` (centres unmarked), the “% Inhibition @ 10 uM” value is reported as 3.84%.

Regarding `Cc1ccc(NC(=O)C2CC=CCC2C(=O)O)c(Br)c1` (centres unmarked), the “% Inhibition @ 10 uM” value came out at 3.24%.

As to `O=S(=O)(NC1CCCCC1N1CCN(Cc2ccc3c(c2)OCO3)CC1)c1ccc(Cl)cc1` (centres unmarked), the “% Inhibition @ 10 uM” value was -4.19%.

As to `O=C(Nc1c(C(=O)c2ccc3c(c2)OCO3)oc2ccccc12)c1ccco1`, the “% Inhibition @ 10 uM” value turned out to be 4.33%.

Consider `CCOC(=O)c1sc(-c2ccccc2)nc1-c1ccc([N+](=O)[O-])cc1`, for which the “% Inhibition @ 10 uM” value was 2.86%.

For `COc1ccc(CC(=O)NCCc2ccccc2)cc1`, the “% Inhibition @ 10 uM” value is listed as -6.27%.

As for `CCOC(=O)c1c(NC(=S)NC(=O)/C=C/c2ccc(F)cc2)sc2c1CCCC2`, the “% Inhibition @ 10 uM” value was found to be 3.47%.

With `COc1ccccc1C(=O)Nc1ccc2nc(SCC(=O)N3CCOCC3)sc2c1`, the “% Inhibition @ 10 uM” value came out at 3.99%.

Turning to `COc1ccc(OC)c(CN2CCN(C(=O)c3cccc(Cl)c3)CC2)c1`, the “% Inhibition @ 10 uM” value is -3.49%.

On to `c1ccc(-c2noc(-c3ccccc3)c3cccc2-3)cc1`, for which the “% Inhibition @ 10 uM” value is listed as -2.77%.

For `CS(=O)(=O)Nc1cccc(-c2cn3cccnc3n2)c1`, the “% Inhibition @ 10 uM” value came to 5.07%.

Consider `O=C(C1=C(O)C(=O)N(CCOCCO)C1c1cccc(F)c1)c1ccc(Br)cc1` (centres unmarked), for which the “% Inhibition @ 10 uM” value was -1.88%.
